Assay results reported in patent publication US6242173A, “Immunoassays for catalytically-active, serine proteases” (University of Vermont and State Agriculatural College, priority 1992, dated 2001).

Target: bovine factor Xa (Bos taurus, UniProt P00743)
Test: Inhibition of hydrolysis of S2222 by bovine Xa
Format: biochemical
Conditions: column fractions / pooled peak
Description: PPACK.2HCl [Boeringer/Calbiochem] […] Final concentration is 13 mM.
Factor Xa: In a one mL cuvette, 22.5 μM S2222 in Hepes/saline pH=7.4 was treated with 1-10 μL of the factor Xa preparation. The mixture was stirred briefly and the absorbance at 405 nm followed in a Cary 219 UV/visible spectrophotometer. The rate was taken for the initial linear phase. Similar methods were used for thrombin (S2238), plasmin (S2251) and tPA (S2238). Hemker, H. C. (1983) in Handbook of Synthetic Substrates: For the Coagulation and Fibrinolytic Systems. Martinus Nijhogg Publishers, Boston.

Substance | ability to inhibit the hydrolysis of S2222 by bovine Xa
Biotinyl-D-phenylalanyl-L-prolyl-L-arginine Chloromethyl Ketone [Biotinyl-PPACK] | positive
Biotinyl-ε-aminocaproyl-L-tyrosylglycyl-L-arginine chloromethyl ketone [BC-YGR-CK] | inhibited
